Measurements taken from ChEMBL document CHEMBL4888484, “Replenishing the malaria drug discovery pipeline: Screening and hit evaluation of the MMV Hit Generation Library 1 (HGL1) against asexual blood stage Plasmodium falciparum ,using a nano luciferase reporter read-out” (2022).
Hit rate of the full screen: of about 150,000 compounds, about 540 (0.36%) showed an effect of 50% or more. The list shows a part of the results.

Each compound was assayed on Plasmodium falciparum (assay: Primary screen in NF54 nanoGlo assay, in single point, at 2uM, 72h; a lower Z score goes with more inhibition). Conditions: timepoint 72 hour.
Format: functional, Erythrocyte
For `CNC(=O)c1cc(Oc2cccc(NC(=O)N3CCCC4(CC3)CC4)c2)ccn1`, the “% Inhibition” value was -5% and the Z score was 0.68. In the case of `COCCn1ccnc1CN(C)CC1CCOCC1`, the “% Inhibition” value is reported as 6% and the Z score is reported as -0.88. With `CC(=O)c1ccc(N2CCN(c3cnc4cc(S(=O)(=O)N5CCCCC5)ccc4n3)CC2)cc1` the “% Inhibition” value was -25% and the Z score was 4.05. `CC(C)c1ccc(OC(=O)CN2CCCNC2=O)cc1` was tested, and the “% Inhibition” value was 6% and the Z score was -0.91. For `Cc1nn(C)c(C)c1C(C)NC(=O)CCC1CCCN(c2cc(NC3CC3)ncn2)C1` (stereo not given), the “% Inhibition” value was -8% and the Z score was 1.56. With `COc1ccc(C2=C(c3ccc(OC)cc3)C3(c4ccccc4)C(=O)C2(c2ccccc2)C2C(=O)NC(=O)C23)cc1` (stereo not given) the “% Inhibition” value was -6% and the Z score was 1. `O=C(Cn1nnc2ccccc21)Nc1nc(-c2ccccc2)cs1` was tested, and the “% Inhibition” value was 4% and the Z score was -0.49. For `O=C(CNc1cc(C(F)(F)F)cc(C(F)(F)F)c1)Nc1cccc(C(=O)NC2CC2)c1`, the “% Inhibition” value was 3% and the Z score was -0.5. `CCCn1cc(CNC(=O)c2c[nH]nc2-n2cnnn2)cn1` was tested, and the “% Inhibition” value was -9% and the Z score was 1.64. In the case of `CN(Cc1noc(C2CCCC2)n1)C(=O)Nc1ccc(-c2nncn2C)cc1`, the “% Inhibition” value is reported as 3% and the Z score is reported as -0.51. `CC(C)[C@H](NC(=O)Nc1cccc(Cl)c1)C(=O)O` was tested, and the “% Inhibition” value was -6% and the Z score was 0.71. For `Cc1ccccc1NCC(=O)Nc1ncc(Cc2ccccc2)s1`, the “% Inhibition” value was -4% and the Z score was 0.57. For `COc1ccc(C(=O)N2C[C@H]3CCC[C@@H](OC)[C@H]3C2)cc1F`, the “% Inhibition” value was 1% and the Z score was -0.05. With `O=C(NC1CCC(Oc2ncccc2Cl)CC1)N1CCN2CCC[C@H]2C1` (stereo not given in full) the “% Inhibition” value was -5% and the Z score was 0.71. With `COc1ccc(N2CCN(C(=O)c3cn(Cc4ccccc4)nc3OCc3ccccc3)CC2)cc1` the “% Inhibition” value was -2% and the Z score was 0.2. For `c1ccc(-c2nc(-c3ccc4ccccc4c3)cs2)cc1`, the “% Inhibition” value was -5% and the Z score was 0.67. With `COc1ccc(CC(=O)N2CCOC3CCCC32)cc1OC` (stereo not given) the “% Inhibition” value was 8% and the Z score was -1.41. With `CC1CCN(C(=O)NC2CC(C)n3ccnc32)CC1n1ccnc1` (stereo not given) the “% Inhibition” value was 12% and the Z score was -1.4. `OC1CCN(CCn2ccnc2-c2cccc3c2oc2ccccc23)CC1` was tested, and the “% Inhibition” value was -7% and the Z score was 1.29. With `CC(C)C(=O)N1CC[C@H](Nc2nccn3cnnc23)C1` the “% Inhibition” value was -9% and the Z score was 0.97. `CN(CC(C)(C)CO)c1nccc(C2CCCC2)n1` was tested, and the “% Inhibition” value was -8% and the Z score was 1.24. `CC(C)c1ccc(CNc2nc3ccncc3n(Cc3ccccc3)c2=O)cc1` was tested, and the “% Inhibition” value was 19% and the Z score was -1.87. With `Cc1nc(CN2CC(=O)N(C)[C@@H](C)C2)co1` the “% Inhibition” value was -5% and the Z score was 0.48. In the case of `CCS(=O)(=O)Nc1ccc(C)n(CC(=O)NCc2ccccc2Br)c1=O`, the “% Inhibition” value is reported as -10% and the Z score is reported as 1.34. For `Cc1n[nH]cc1NC(=O)C(=O)c1ccc2c(c1)OCCO2`, the “% Inhibition” value was -3% and the Z score was 0.48. `CNC(=O)[C@@H]1CCCN1c1ncnc2c1cnn2-c1ccccc1` was tested, and the “% Inhibition” value was -16% and the Z score was 1.65. For `CC(=O)N1CCC(CNC(=O)OCc2ccccc2)CC1`, the “% Inhibition” value was -2% and the Z score was 0.14. In the case of `O=C(CN1CCCCC1)N1CCc2sccc2C1`, the “% Inhibition” value is reported as -1% and the Z score is reported as 0.13. For `CNC(=O)c1n[nH]c2c1[C@@H](CCn1nc(C)cc1C)CC(=O)N2`, the “% Inhibition” value was -6% and the Z score was 1.03. In the case of `Cc1c(-c2n[nH]c(=O)n2[C@@H](C)c2ccc(Cl)cc2)cnn1C`, the “% Inhibition” value is reported as -6% and the Z score is reported as 1.17. With `COCCNc1nc(N2CCCCCC2)c2cnn(-c3ccccc3)c2n1` the “% Inhibition” value was 0% and the Z score was 0.03. For `CN(C)c1ccc(-c2ccnc(N[C@H]3CO[C@H]4[C@@H]3OC[C@@H]4NC(=O)C3CCCCC3)n2)cc1`, the “% Inhibition” value was 2% and the Z score was -0.3. For `COCc1cn([C@@H]2CC[C@H]3CCOc4ccccc4C(=O)N4CCN(Cc5ccc(F)c(F)c5)C[C@H]4C(=O)NC[C@H]2O3)nn1`, the “% Inhibition” value was 15% and the Z score was -1.79. With `CC(C)Oc1ccc(S(=O)(=O)Nc2cnsc2)cc1` the “% Inhibition” value was -5% and the Z score was 0.61. For `CC(C)S(=O)(=O)[C@@H](C)C(=O)Nc1cc[nH]n1`, the “% Inhibition” value was 5% and the Z score was -0.99. With `CC(C)c1cc(NC(=O)NC2CC3CCC2O3)no1` (stereo not given) the “% Inhibition” value was -2% and the Z score was 0.38. `Cc1nc(N2CCCC2)nc(C)c1NC(=O)c1ccc2c(c1)OCO2` was tested, and the “% Inhibition” value was -4% and the Z score was 0.62. For `CC(C)c1nn(C)c2sc(C(=O)N[C@@H](C)C(=O)N3CCCCC3)cc12`, the “% Inhibition” value was 2% and the Z score was -0.31. `CCN1C(=O)c2cc(NC(=O)c3ccc(OC(C)C)cc3)ccc2Oc2ccccc21` was tested, and the “% Inhibition” value was -24% and the Z score was 2.82. In the case of `Cc1nn(C(=O)c2ccco2)c2c1[C@H]1[C@@H](C2)C1(C)C`, the “% Inhibition” value is reported as -10% and the Z score is reported as 1.24. With `O=C(c1cnc(NCc2nccc(C(F)F)n2)c(Cl)c1)N1CCOCC1` the “% Inhibition” value was -8% and the Z score was 1.43. In the case of `CC(=O)N(Cc1cccc(OS(=O)(=O)c2c(C)cccc2Cl)c1)CC1CC1`, the “% Inhibition” value is reported as 3% and the Z score is reported as -0.46. With `CCC(NC1COC2(CCC2)C1)C(c1ccc(C)cc1)n1cncn1` (stereo not given) the “% Inhibition” value was 5% and the Z score was -0.97. In the case of `Cc1cnc([C@@H](NS(=O)(=O)c2ccc(OCC(F)F)cc2)C2CC2)s1`, the “% Inhibition” value is reported as -5% and the Z score is reported as 0.55. In the case of `O=C(O)CCc1cc2n(n1)CCCN(Cc1ccc([C@@H]3CCCO3)s1)C2`, the “% Inhibition” value is reported as -9% and the Z score is reported as 1.7. In the case of `CN(Cc1ccc(N2CCOCC2)cc1)C[C@H](O)c1cccc(F)c1`, the “% Inhibition” value is reported as 3% and the Z score is reported as -0.38. With `COc1ccccc1CNC(=O)N1CCN2CCC[C@H]2C1` the “% Inhibition” value was -9% and the Z score was 1.1. `CC1CCCC(NC(=O)C2(C)CCCO2)C1` (stereo not given) was tested, and the “% Inhibition” value was 1% and the Z score was -0.2. `Fc1ccc(N2CCC(CN3CCOCC3)CC2)nc1` was tested, and the “% Inhibition” value was -15% and the Z score was 1.97. In the case of `O=C(NCc1cn(-c2ccncc2)nn1)c1ccc2c(c1)OCO2`, the “% Inhibition” value is reported as 13% and the Z score is reported as -1.75. With `NC(=O)C1CCN(C(=O)CC2CC3CCC2C3)CC1` (stereo not given) the “% Inhibition” value was -1% and the Z score was 0.07. With `CCc1nocc1CN1CCNCc2ccccc21` the “% Inhibition” value was -7% and the Z score was 1.3. `CCn1ccnc1CN(Cc1ccsc1)CC(C)C` was tested, and the “% Inhibition” value was 5% and the Z score was -1.01. For `C[C@@H](C(=O)N1CCn2nc(Cc3ccccc3)cc2C1)n1cncn1`, the “% Inhibition” value was -7% and the Z score was 1. `CC1(C)CN(C(=O)CCc2cccnc2)C[C@]1(C)O` was tested, and the “% Inhibition” value was -5% and the Z score was 0.59. `CN(C)S(=O)(=O)c1cccc(NC(=O)Cc2cn(-c3ccccc3)nc2-c2ccc(Cl)cc2)c1` was tested, and the “% Inhibition” value was 26% and the Z score was -2.96. With `CCOC(=O)C(F)(F)[C@@H](NCC(=O)OC)C1CC1` the “% Inhibition” value was 39% and the Z score was -5.6. With `COCC(=O)N1CCN(C(=O)c2ccc(Cc3ccccc3)[nH]2)CC1` the “% Inhibition” value was -9% and the Z score was 1.3. With `Cc1ccc2c(c1)cc(C(=O)N1C[C@H](C(=O)O)[C@@H](C3CC3)C1)n2C` the “% Inhibition” value was -14% and the Z score was 1.99. In the case of `Cc1cc(N2CC[C@H]3[C@H](CCC(=O)N3CCCO)C2)nc2ccccc12`, the “% Inhibition” value is reported as -10% and the Z score is reported as 1.83. In the case of `COc1nc(N[C@H]2CCCN(C)C2)ncc1F`, the “% Inhibition” value is reported as 3% and the Z score is reported as -0.5. In the case of `O=C1CCCC[C@@](Cc2ccccc2)(C(=O)NCc2ccc(Cl)cc2)N1`, the “% Inhibition” value is reported as -7% and the Z score is reported as 0.8. In the case of `c1ccc2nc(NCCc3cn([C@H]4CCOC4)nn3)cnc2c1`, the “% Inhibition” value is reported as -7% and the Z score is reported as 0.84. `CN1CCN(c2ccc(C(=O)O)s2)c2ccccc21` was tested, and the “% Inhibition” value was -5% and the Z score was 1.03. For `CC[C@H](O)Cn1nc(Cc2ccccc2OC)nc1-c1ccc(C)n1C`, the “% Inhibition” value was -3% and the Z score was 0.62. `CCCn1nc(C2CC2)nc1[C@H](C)Oc1cccc(Cl)c1` was tested, and the “% Inhibition” value was -12% and the Z score was 1.14. With `Cc1ccc2c(c1C)OC1(CCN([C@@H](C)C(=O)N3CCCC3)CC1)CC2=O` the “% Inhibition” value was 4% and the Z score was -0.51. `C[C@H](O)c1cnc(CN(C)C(C2CC2)C2CC2)s1` was tested, and the “% Inhibition” value was -3% and the Z score was 0.65. For `Cc1nc(C)c(CC(=O)N[C@@H]2COC3(CCCC3)C2)c(=O)[nH]1`, the “% Inhibition” value was 11% and the Z score was -1.46. In the case of `O=C(COc1ccccc1F)Nc1ccc(O[C@H]2CCOC2)cc1`, the “% Inhibition” value is reported as -11% and the Z score is reported as 1.23. `CC(C)(C)NS(=O)(=O)c1cnc(NC(=O)[C@H]2CCCO2)s1` was tested, and the “% Inhibition” value was -4% and the Z score was 0.56. In the case of `CC(C)[C@@H](CO)NC(=O)C(O)C1COC(C)(C)O1` (stereo not given in full), the “% Inhibition” value is reported as 0% and the Z score is reported as 0. `O=C(NCC1CCC(C(F)(F)F)CC1)c1cc2n(n1)CCCO2` (stereo not given) was tested, and the “% Inhibition” value was -12% and the Z score was 1.39. For `O=S(=O)(c1cnc(C2OCCO2)s1)N1CCCC2CC21` (stereo not given), the “% Inhibition” value was -10% and the Z score was 1.7. For `FC(F)(F)c1csc(Cn2cnc3c2CCNC32CCOCC2)n1`, the “% Inhibition” value was -5% and the Z score was 0.75. For `COc1ccc(Cl)cc1-c1ccccc1CN1CCNCC1`, the “% Inhibition” value was -12% and the Z score was 1.21. In the case of `Cn1cnc2cc(C(=O)O)c(Nc3ccc(Br)cc3Cl)c(F)c21`, the “% Inhibition” value is reported as -12% and the Z score is reported as 1.65. With `COc1ccc(-c2ccc(C(=O)N3CCO[C@H](C(=O)O)C3)c(F)c2)c(F)c1` the “% Inhibition” value was 2% and the Z score was -0.37. `c1cn(CCCOc2ccc(CN3CCOCC3)cc2)cn1` was tested, and the “% Inhibition” value was -9% and the Z score was 1.57. For `COc1nc(C)ccc1CN=C(N)NCc1ccccc1`, the “% Inhibition” value was 2% and the Z score was -0.21. `CCN(CC(=O)Nc1ccc(C)cc1Cl)C[C@H]1CCOC1` was tested, and the “% Inhibition” value was -7% and the Z score was 0.97. `Cc1ccc(CN2CC[C@H](c3nnc(-c4ccc(N(C)C)cc4)o3)C2)o1` was tested, and the “% Inhibition” value was 29% and the Z score was -3.26. For `Cc1noc(C)c1C[C@H](C)NC(=O)NCCCOc1ccc(F)cc1`, the “% Inhibition” value was -7% and the Z score was 1.27. In the case of `C=CCN=C(NCCc1ccn(C(C)C)n1)NCC(C)C`, the “% Inhibition” value is reported as 13% and the Z score is reported as -1.6. For `CN(C)Cc1cc(NC(=O)N(C)Cc2cccc(=O)[nH]2)ccn1`, the “% Inhibition” value was 6% and the Z score was -1.27.
